{"source": "the supplement of paper PMC9174493", "note": "The list shows a part of the results. Single values of this set are uncertain. Values with irradiation are relative to irradiated vehicle.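 Also: viability correction based on the alamar blue assay, with concentrations leaving 10% survival or less dropped.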"}
{"tested_on": "A549-Dual", "assay": "NF-kB reporter (SEAP) activity, viability-corrected, relative to vehicle (fold change vs vehicle); higher = more activation of STING-IRF / NF-kB immune response reporter", "conditions": "10 µM; irradiation: none"}
{"smiles": "Cc1cc(O)c2c(c1)C(=O)c1cc(O)cc(O)c1C2=O", "note": "[Emodin]", "NF-kB reporter": 0.493}
{"smiles": "C1CCNC1", "note": "[Pyrrolidine]", "NF-kB reporter": 0.907}
{"smiles": "NC(=O)c1ccccc1O", "note": "[Salicylamide]", "NF-kB reporter": 0.827}
{"smiles": "COc1cc2nc(N3CCN(C(=O)c4ccco4)CC3)nc(N)c2cc1OC.Cl", "note": "[Prazosin HCl]", "NF-kB reporter": 1.48}
{"smiles": "O=[N+]([O-])c1ccc(O)cc1", "note": "[4-Nitrophenol]", "NF-kB reporter": 0.991}
{"smiles": "Nc1ccc(S(=O)(=O)Nc2ncccn2)cc1", "note": "[Sulfadiazine]", "NF-kB reporter": 1.16}
{"smiles": "CC1(C)SC2C(NC(=O)Cc3ccccc3)C(=O)N2C1C(=O)O.CC1(C)SC2C(NC(=O)Cc3ccccc3)C(=O)N2C1C(=O)O.c1ccc(CNCCNCc2ccccc2)cc1", "note": "(stereo not given) [Benzathine penicilline]", "NF-kB reporter": 0.779}
{"smiles": "CC(C)(C(=O)c1cccnc1)c1cccnc1", "note": "[Metyrapone]", "NF-kB reporter": 0.809}
{"smiles": "CCCCC(F)(F)C(=O)CCC1C(O)CC(=O)C1CCCCCCC(=O)O", "note": "(stereo not given) [Lubiprostone]", "NF-kB reporter": 1.41}
{"smiles": "Cc1nc(C(=O)NCC(=O)O)c(O)c2ccc(Oc3ccccc3)cc12", "note": "[Roxadustat (FG-4592)]", "NF-kB reporter": 0.764}
{"smiles": "CN1CCN(CC(=O)N2c3ccccc3C(=O)Nc3cccnc32)CC1.Cl.Cl", "note": "[Pirenzepine dihydrochloride]", "NF-kB reporter": 1.01}
{"smiles": "CN(Cc1ccc(C(C)(C)C)cc1)Cc1cccc2ccccc12.Cl", "note": "[Butenafine HCl]", "NF-kB reporter": 0.739}
{"smiles": "O=CC(O)C(O)C(O)CO", "note": "(stereo not given) [Xylose]", "NF-kB reporter": 0.837}
{"smiles": "CCCCCCOC(=O)N=C(N)c1ccc(NCc2nc3cc(C(=O)N(CCC(=O)OCC)c4ccccn4)ccc3n2C)cc1", "note": "[Dabigatran Etexilate]", "NF-kB reporter": 0.961}
{"smiles": "COc1cc2nc(N3CCN(C(=O)C4CCCO4)CC3)nc(N)c2cc1OC.Cl.O.O", "note": "(stereo not given) [Terazosin HCl Dihydrate]", "NF-kB reporter": 0.682}
{"smiles": "O=S(=O)([O-])CCCS(=O)(=O)[O-].[Na+].[Na+]", "note": "[Eprodisate disodium]", "NF-kB reporter": 0.818}
{"smiles": "COC(=O)C1=C(C)NC(C)=C(C(=O)OCCN2CCN(C(c3ccccc3)c3ccccc3)CC2)C1c1cccc([N+](=O)[O-])c1", "note": "(stereo not given) [Manidipine]", "NF-kB reporter": 1.21}
{"smiles": "Cc1nnc(SCC2=C(C(=O)[O-])N3C(=O)C(NC(=O)Cn4cnnn4)C3SC2)s1.[Na+]", "note": "(stereo not given) [Cefazolin Sodium]", "NF-kB reporter": 0.963}
{"smiles": "CCN(CC)CCNC(C(=O)OCCC(C)C)c1ccccc1.Cl.Cl", "note": "(stereo not given) [Camylofin Chlorhydrate]", "NF-kB reporter": 0.637}
{"smiles": "CCCCc1ncc(/C=C(\\Cc2cccs2)C(=O)O)n1Cc1ccc(C(=O)O)cc1.CS(=O)(=O)O", "note": "[Eprosartan Mesylate]", "NF-kB reporter": 1.15}
{"smiles": "O=C(O)/C=C/c1ccc(O)cc1", "note": "[p-Coumaric Acid]", "NF-kB reporter": 0.596}
{"smiles": "COc1cc(CNC(=O)CCCC/C=C/C(C)C)ccc1O", "note": "[Capsaicin(Vanilloid)]", "NF-kB reporter": 0.497}
{"smiles": "O=C(/C=C/c1ccc(O)c2c1C(C(=O)OC(Cc1ccc(O)c(O)c1)C(=O)O)C(c1ccc(O)c(O)c1)O2)OC(Cc1ccc(O)c(O)c1)C(=O)O", "note": "(stereo not given) [Salvianolic acid B]", "NF-kB reporter": 0.494}
{"smiles": "CCCCCCCCCCC(=O)O", "note": "[Undecanoic acid]", "NF-kB reporter": 0.726}
{"smiles": "CC1COc2c(N3CCN(C)CC3)c(F)cc3c(=O)c(C(=O)O)cn1c23", "note": "(stereo not given) [Levofloxacin hydrate]", "NF-kB reporter": 0.988}
{"smiles": "C[N+](C)(C)C[C@H](O)CC(=O)[O-]", "note": "[L-carnitine]", "NF-kB reporter": 0.897}
{"smiles": "CCCCCCCC/C=C\\CCCCCCCC(=O)OC", "note": "[Methyl Oleate]", "NF-kB reporter": 0.597}
{"smiles": "CCOC(=O)C1=C(C)NC(C)=C(C(=O)OC)C1c1cccc([N+](=O)[O-])c1", "note": "(stereo not given) [Nitrendipine]", "NF-kB reporter": 0.784}
{"smiles": "O=C(O)CCCCC1SCC2NC(=O)NC21", "note": "(stereo not given) [Biotin (Vitamin B7)]", "NF-kB reporter": 1.25}
{"smiles": "COc1cc(NC(C)CCCN)c2ncccc2c1.O=P(O)(O)O.O=P(O)(O)O", "note": "(stereo not given) [Primaquine Diphosphate]", "NF-kB reporter": 1.48}
{"smiles": "O=C(NC1CCN(CCCCC2(C(=O)NCC(F)(F)F)c3ccccc3-c3ccccc32)CC1)c1ccccc1-c1ccc(C(F)(F)F)cc1", "note": "[Lomitapide]", "NF-kB reporter": 0.806}
{"smiles": "CCN(CC)CCOCCOC(=O)C(CC)(CC)c1ccccc1.O=C(O)CC(O)(CC(=O)O)C(=O)O", "note": "[Oxeladin Citrate]", "NF-kB reporter": 0.823}
{"smiles": "COC1OC(COS(=O)(=O)[O-])C(OC2OC(C(=O)[O-])C(OC3OC(COS(=O)(=O)[O-])C(OC4OC(C(=O)[O-])C(OC5OC(COS(=O)(=O)[O-])C(O)C(O)C5NS(=O)(=O)[O-])C(O)C4O)C(OS(=O)(=O)[O-])C3NS(=O)(=O)[O-])C(O)C2OS(=O)(=O)[O-])C(O)C1NS(=O)(=O)[O-].[Na+].[Na+].[Na+].[Na+].[Na+].[Na+].[Na+].[Na+].[Na+].[Na+]", "note": "(stereo not given) [Fondaparinux Sodium]", "NF-kB reporter": 0.99}
{"smiles": "CNS(=O)(=O)Cc1ccc2[nH]cc(CCN(C)C)c2c1.O=C(O)CCC(=O)O", "note": "[Sumatriptan Succinate]", "NF-kB reporter": 0.897}
{"smiles": "CC(C)(C(=O)O)c1ccc(C(O)CCCN2CCC(C(O)(c3ccccc3)c3ccccc3)CC2)cc1.Cl", "note": "(stereo not given) [Fexofenadine HCl]", "NF-kB reporter": 0.582}
{"smiles": "CCCCCCCCCCCCN1CCCCCC1=O", "note": "[Laurocapram]", "NF-kB reporter": 0.448}
{"smiles": "COc1ccc(OC)c(C(O)CNC(=O)CN)c1.Cl", "note": "(stereo not given) [Midodrine hydrochloride]", "NF-kB reporter": 1.15}
{"smiles": "CC1OC(OC2C(O)C(OCCc3ccc(O)c(O)c3)OC(COC3OC(CO)C(O)C(O)C3O)C2OC(=O)/C=C/c2ccc(O)c(O)c2)C(O)C(O)C1O", "note": "(stereo not given) [Echinacoside]", "NF-kB reporter": 1.31}
{"smiles": "O=C(O)CCCCCCCC(O)C(O)CCCCCCO", "note": "(stereo not given) [Aleuritic Acid]", "NF-kB reporter": 0.819}
{"smiles": "O=C([O-])CCC(=O)OCC(NC(=O)C(Cl)Cl)C(O)c1ccc([N+](=O)[O-])cc1.[Na+]", "note": "(stereo not given) [Chloramphenicol sodium succinate]", "NF-kB reporter": 0.913}
